According to PubChem BioAssay (NCATS):
The inconclusive results got no clear call from the source; some entries with a clear call stand among them for comparison. No potency is given beside an inconclusive call; the fits are too rough. Activity calls are given as the source filed them. Calls come from the whole dose curve; as a rule, active = well fitted inhibition curve with a large enough effect; inconclusive = small, poorly fitted or top-dose-only effect; inactive = no such curve, though single readings can be large or run the other way.

Assay: Primary qHTS for inhibitors of La Crosse Virus (LACV) - induced cell death in SH-SY5Y cells (AID 1508616);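 for activity change: top concentration of the series differs between compounds; 0% = infected DMSO wells and 100% = uninfected DMSO wells; higher means more rescue of cells from virus-induced death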
Settings: SH-SY5Y LACV cytopathicity rescue, ATP luminescence, 6 d; activity change: at the top concentration
Method in brief: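 Readout was luminescence from ATPLite 1step added after a 6-day LACV infection (0.01 MOI) of SH-SY5Y cells that had received pin-transferred compound 24 hr after seeding.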
Potency is the fitted concentration of half-maximal effect; tags give direction and shape of the fitted curve.

| SMILES | Potency | activity change |
| --- | --- | --- |
| C1CCC(NC2CCCCC2)CC1 | inconclusive [inhibitor, full curve] | – |
| Cc1c(Cl)c(=O)oc2cc(OP(=O)(OCCCl)OCCCl)ccc12 | inconclusive [inhibitor, full curve, poor fit] | – |
| CCc1ccc(C2CCNCC2)cc1 | – | inactive: -13.8% |
| Fc1ccc(C(OCCN2CCN(CCCc3ccccc3)CC2)c2ccc(F)cc2)cc1 | inconclusive [inhibitor, single point] | – |
| NCCc1ccc(O)cc1 | inconclusive [inhibitor, partial curve, poor fit] | – |
| c1ccc(CCCN2CCN(CCOC(c3ccccc3)c3ccccc3)CC2)cc1 | inconclusive [inhibitor, partial curve, poor fit] | – |
| CC(C)=C[C@@H]1[C@@H](C(=O)OCc2coc(Cc3ccccc3)c2)C1(C)C | inconclusive [inhibitor, single point] | – |
| COc1cc(C[C@@H](C)N)c(OC)cc1Br | – | inactive: -9.41% [at 9.63 µM] |
| Cc1nc2ccccc2c(=O)n1-c1ccccc1Cl | – | inactive: 17.8% [at 8.54 µM] |
| CCCSP(=O)(OCC)SCCC | inconclusive [inhibitor, single point] | – |
| CN1CC[C@@]2(C)c3cc(OC(=O)Nc4ccccc4)ccc3N(C)[C@@H]12 | – | inactive: 0.603% [at 9.63 µM] |
| CN1C(=O)[C@@H](NC(=O)c2cc3ccccc3[nH]2)N=C(c2ccccc2)c2ccccc21 | – | inactive: 16.8% |
| Nc1ccc(N=Nc2ccccc2)cc1 | inconclusive [inhibitor, partial curve, poor fit] | – |
| COC(=O)[C@@H](N)CCCN=C(N)N[N+](=O)[O-] | – | inactive: -8.43% [at 9.63 µM] |
| Cc1c(C(=O)c2cccc3ccccc23)c2cccc3c2n1[C@H](CN1CCOCC1)CO3 | inconclusive [inhibitor, single point] | – |
| c1ccc2c(c1)OCC(C1=NCCN1)O2 (stereo unspecified) | inconclusive [inhibitor, single point] | – |
